{
  "source": "the supplement of paper PMC9135407",
  "test_system": "primary human hepatic stellate cells (donor 1)",
  "assay": "scaled lipid accumulation score (0 = DMSO-like, 1 = nortriptyline-like); higher = stronger HSC inactivation (lipid re-accumulation), active = hit call of the paper",
  "details": "48 h",
  "description": "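Primary lipid accumulation screen in primary human hepatic stellate cell myofibroblasts (donor 1, passage 8) in 384-well plates. 100 nL of library compound was pin-transferred into 30 µL medium in duplicate, and cells were treated for 48 h. The 'Scaled' score combines distance from plate baseline, toxicity and reproducibility penalties, and is normalised to nortriptyline (positive) and DMSO (negative) controls on each plate. A hit is defined as scaled >0.85 or among the top 3 wells per plate.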",
  "key": {"[1]": {"details": "library stock concentration: 10 mM"}},
  "note": "“And” between values parts separate entries of the source, which are not always exact repeats. Equal values may be shown once. Where a name gives a salt, the structure may show the parent alone. About 620 (11%) of roughly 5,800 compounds showed activity.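 How the source made its calls: active = score above a cut-off or among the top three wells of a plate; in these data no inactive exceeds 0.85.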 The entries are a selection whose mix differs from that of the whole data set.",
  "data": [
    {"compound": "CCC[C@@H]1CC2=CC(=O)CC[C@]2(C)[C@H]2CC[C@@]3(C)[C@@H](CC[C@@]3(O)CCC(=O)O)[C@H]12", "values": [
      {"measurement": "scaled lipid accumulation score", "setting": "[1]", "value": "inactive: 0.026"}
    ]},
    {"compound": "CC1=C2C(=CO[C@H](C)[C@H]2C)C(O)=C(C(=O)O)C1=O", "note": "[Citrinin]", "values": [
      {"measurement": "scaled lipid accumulation score", "setting": "[1]", "value": "inactive: ≤ 0"}
    ]},
    {"compound": "C[C@]12CC[C@@H](O)C[C@@H]1CC[C@@H]1[C@@H]2CC[C@]2(C)[C@@H](C(=O)CO)CC[C@@H]12", "note": "[3-alpha,21-Dihydroxy-5-alpha-pregnan-20-one]", "values": [
      {"measurement": "scaled lipid accumulation score", "setting": "[1]", "value": "inactive: ≤ -0.007"}
    ]},
    {"compound": "C[C@@H]1O[C@@H](O[C@H]2C[C@@H](O)[C@]3(CO)[C@H]4[C@H](O)C[C@]5(C)[C@@H](C6=CC(=O)OC6)CC[C@]5(O)[C@@H]4CC[C@]3(O)C2)[C@H](O)[C@H](O)[C@H]1O.O.O.O.O.O.O.O.O", "note": "[Strophantine octahydrate]", "values": [
      {"measurement": "scaled lipid accumulation score", "value": "active: 1.02"}
    ]},
    {"compound": "Cc1nnc2n1-c1sc(CCC(=O)N3CCOCC3)cc1C(c1ccccc1Cl)=NC2", "values": [
      {"measurement": "scaled lipid accumulation score", "setting": "[1]", "value": "inactive: ≤ -0.001"}
    ]},
    {"compound": "CC[N+]1(C)CCCC(OC(=O)C(O)(c2ccccc2)c2ccccc2)C1", "note": "(configuration not stated) [Pipenzolate bromide]", "values": [
      {"measurement": "scaled lipid accumulation score", "value": "inactive: ≤ 0"},
      {"measurement": "scaled lipid accumulation score", "setting": "[1]", "value": "inactive: ≤ -0.027"}
    ]},
    {"compound": "C/C=C(/C)C(=O)O[C@H]1C(C)=C2[C@H]([C@@H]1OC(=O)CCCCCCC)[C@@](C)(OC(C)=O)C[C@H](OC(=O)CCC)[C@@]1(O)[C@H]2OC(=O)[C@@]1(C)O", "note": "[Thapsigargin]", "values": [
      {"measurement": "scaled lipid accumulation score", "setting": "library stock concentration: 7.7 mM", "value": "inactive: 0.266"},
      {"measurement": "scaled lipid accumulation score", "setting": "[1]", "value": "inactive: ≤ 0"}
    ]},
    {"compound": "COC1(C[S@+]([O-])c2ccccc2)CCN(CCc2c[nH]c3ccc(F)cc23)CC1", "values": [
      {"measurement": "scaled lipid accumulation score", "setting": "[1]", "value": "inactive: 0.611"}
    ]},
    {"compound": "NC(C(=O)O)c1nn[nH]n1", "note": "(racemic) [(RS)-(Tetrazol-5-yl)glycine]", "values": [
      {"measurement": "scaled lipid accumulation score", "setting": "[1]", "value": "inactive: ≤ 0"}
    ]},
    {"compound": "CCCN(CCC)[C@H]1CCc2c(F)ccc(O)c2C1", "note": "[S(-)-UH-301 hydrochloride]", "values": [
      {"measurement": "scaled lipid accumulation score", "setting": "[1]", "value": "inactive: 0.149"}
    ]},
    {"compound": "c1ccc(C2CNCc3ccccc32)cc1", "note": "(configuration not stated) [4-Phenyl-1,2,3,4-tetrahydroisoquinoline hydrochloride]", "values": [
      {"measurement": "scaled lipid accumulation score", "setting": "[1]", "value": "inactive: 0.217"}
    ]},
    {"compound": "COc1ccc2c(c1)[nH]c1c(C)nccc12.Cl", "note": "[Harmine hydrochloride]", "values": [
      {"measurement": "scaled lipid accumulation score", "value": "active: 0.89"}
    ]},
    {"compound": "c1ccc2c(c1)OCC(C1=NCCN1)O2", "note": "(configuration not stated) [Idazoxan hydrochloride]", "values": [
      {"measurement": "scaled lipid accumulation score", "value": "inactive: ≤ 0"},
      {"measurement": "scaled lipid accumulation score", "setting": "[1]", "value": "inactive: 0.384 and inactive: 0.15"}
    ]},
    {"compound": "Cc1cc([C@@H]2CCCN2C)on1", "note": "[ABT-418 hydrochloride]", "values": [
      {"measurement": "scaled lipid accumulation score", "setting": "[1]", "value": "inactive: ≤ 0"}
    ]},
    {"compound": "CN1C(=O)CN=C(c2ccccc2)c2cc(Cl)ccc21", "note": "[Diazepam]", "values": [
      {"measurement": "scaled lipid accumulation score", "setting": "[1]", "value": "inactive: ≤ 0"}
    ]},
    {"compound": "C[C@]12CC[C@H](O)CC1=CC[C@@H]1[C@@H]2CC[C@]2(C)C(=O)CC[C@@H]12", "note": "[Dehydroepiandrosterone (DHEA)]", "values": [
      {"measurement": "scaled lipid accumulation score", "setting": "library stock concentration: 3.33 mM", "value": "inactive: ≤ 0"},
      {"measurement": "scaled lipid accumulation score", "setting": "[1]", "value": "inactive: ≤ 0"}
    ]},
    {"compound": "C[C@]12CC[C@H](O)CC1=CC[C@@H]1[C@@H]2CC[C@]2(C)C(=O)CC[C@@H]12", "note": "[Dehydroepiandrosterone]", "values": [
      {"measurement": "scaled lipid accumulation score", "setting": "library stock concentration: 6.9 mM", "value": "inactive: 0.032"}
    ]},
    {"compound": "C[C@]12CC[C@H](O)CC1=CC[C@@H]1[C@@H]2CC[C@]2(C)C(=O)CC[C@@H]12", "values": [
      {"measurement": "scaled lipid accumulation score", "setting": "[1]", "value": "inactive: ≤ 0"}
    ]}
  ]
}
